# Measurements taken from a collection of fitness landscapes (doi:10.1016/j.celrep.2020.107928).
# In all, about 81,000 sequences were measured (“one-hybrid fitness for binding parS DNA”: median about -0.17, highest 2% from about 0.51 on). Some of the results follow.
# B1: Caulobacter ParB omega fusion; a variant is named by its letters at X, in order, B8GW30 (parent)
# chain: MESVVVGEPGMSEGRRGLGRGLSALLGEVDAAPAQAPGEQLGGSREAPIEILQRNPDQPRRTFREEDLEDLSNSIREKGVLQPILVRPSPDTAGEYQIVAGERAWRAAQRAGLKTVPIMVRELDDLAVLEIGIIENVQRADLNVLEEALSYKVLMEKFERTQENIAQTIGKSXSHVANXMRLLXLPDEVQSYLVSGELTAXHARAIAAAADPVALAKQIIEGGLSVRETEALARKAPNLSAGKSKGGRPPRVKDTDTQALESDLSSVLGLDVSIDHRGSTGTLTITYATLEQLDDLCNRLTRGI
# Variants of: B1
# Experiment: one-hybrid fitness for binding parS DNA (scaled: cognate 1, non-cognate 0); higher = stronger binding
# Details: with parS DNA site
# Procedure, shortened: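 Selection: bacterial one-hybrid in E. coli USO, HIS3 reporter with the site 19 bp from the promoter, 48 hours at 37°C on M9-minus-histidine plus 0.1 mM IPTG and 5 mM 3-AT. Libraries were Caulobacter ParB with four randomised specificity codons, sequenced on Illumina before and after selection. Fitness is the rescaled log change in variant-to-wild-type read ratio, anchored to the cognate and non-cognate sites.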
row,Variant,one-hybrid fitness for binding parS DNA
1,KNGS,≤ 0.2
2,RWMI,≤ 0.2
3,HDEG,≤ 0.2
4,GAYA,≤ 0.2
5,WYPV,≤ 0.2
6,QVTI,≤ 0.2
7,VSMI,≤ 0.2
8,DNFC,≤ 0.2
9,HHKQ,≤ 0.2
10,YYLW,≤ 0.2
11,GPHK,≤ 0.2
12,SETC,≤ 0.2
13,NNLC,≤ 0.2
14,YYNV,≤ 0.2
15,VLNA,≤ 0.2
16,WHQW,≤ 0.2
17,SYTT,≤ 0.2
18,SKHD,≤ 0.2
19,RCTT,0.949
20,CDNS,≤ 0.2
21,PMCY,≤ 0.2
22,LEGK,≤ 0.2
23,HKKC,≤ 0.2
24,TKEG,≤ 0.2

row,Variant,one-hybrid fitness for binding parS DNA
1,CKAI,≤ 0.2
2,PIRQ,≤ 0.2
3,WYGN,≤ 0.2
4,QLVC,≤ 0.2
5,RLIP,≤ 0.2
6,RAIR,≤ 0.2
7,IFVE,≤ 0.2
8,HLDI,≤ 0.2
9,RSAQ,≤ 0.2
10,GTLN,≤ 0.2
11,WGTR,≤ 0.2
12,SFTW,≤ 0.2
13,SVDF,≤ 0.2
14,EKYS,≤ 0.2
15,YLTC,≤ 0.2
16,QIDV,≤ 0.2
17,GMLS,≤ 0.2
18,LDLL,≤ 0.2
19,WKPK,≤ 0.2
20,PLHW,≤ 0.2
21,LNFR,≤ 0.2
22,MARI,≤ 0.2
23,MTGN,≤ 0.2
24,PYIS,≤ 0.2

row,Variant,one-hybrid fitness for binding parS DNA
1,HLKG,≤ 0.2
2,GWTD,≤ 0.2
3,VWNG,≤ 0.2
4,LIRN,≤ 0.2
5,MVPR,≤ 0.2
6,FPNM,≤ 0.2
7,PSAN,≤ 0.2
8,PAPE,≤ 0.2
9,QVID,≤ 0.2
10,CGAV,≤ 0.2
11,DGYW,≤ 0.2
12,TTPG,≤ 0.2
13,RPHR,≤ 0.2
14,RYDF,≤ 0.2
15,QADS,≤ 0.2
16,QYRM,≤ 0.2
17,SCNT,≤ 0.2
18,MISW,≤ 0.2
19,WCHS,≤ 0.2
20,LATY,≤ 0.2
21,PWDL,≤ 0.2
22,RVVW,0.235
23,PVSE,≤ 0.2
24,NTLD,≤ 0.2

row,Variant,one-hybrid fitness for binding parS DNA
1,AKQA,≤ 0.2
2,SAVI,≤ 0.2
3,RFTN,0.405
4,RSIH,≤ 0.2
5,AHSG,≤ 0.2
6,QWQT,≤ 0.2
7,QNCR,≤ 0.2
8,RFVM,≤ 0.2
9,TVVA,≤ 0.2
10,IHSR,≤ 0.2
11,ACCF,≤ 0.2
12,ASEY,≤ 0.2
13,ACKN,≤ 0.2
14,AHNG,≤ 0.2
15,VPAI,≤ 0.2
16,HPVT,≤ 0.2
17,CMRM,≤ 0.2
18,DRYD,≤ 0.2
19,GEEG,≤ 0.2
20,RWFM,≤ 0.2
21,PHVG,≤ 0.2
22,PVST,≤ 0.2
23,QCSQ,≤ 0.2
24,TTAS,≤ 0.2

row,Variant,one-hybrid fitness for binding parS DNA
1,LLTP,≤ 0.2
2,GYGC,≤ 0.2
3,YLTH,≤ 0.2
4,YRAE,0.216
5,CMMR,≤ 0.2
6,EDGS,≤ 0.2
7,NPPM,≤ 0.2
8,DTKW,≤ 0.2
9,DGPR,≤ 0.2
10,RIHG,1.02
11,HNDT,≤ 0.2
12,NSWA,≤ 0.2
13,DPVV,≤ 0.2
14,LDMS,≤ 0.2
15,TKMT,≤ 0.2
16,HGTF,≤ 0.2
17,SGKH,≤ 0.2
18,SPKA,≤ 0.2
19,TTKR,≤ 0.2
20,KFPA,≤ 0.2
21,PPAM,≤ 0.2
22,PIMT,≤ 0.2
23,KMES,≤ 0.2
24,AAPN,≤ 0.2

row,Variant,one-hybrid fitness for binding parS DNA
1,KLHC,≤ 0.2
2,SSYK,≤ 0.2
3,CTVI,≤ 0.2
4,VQES,≤ 0.2
5,FHHR,≤ 0.2
6,RLVQ,≤ 0.2
7,DQLN,≤ 0.2
8,PQYY,≤ 0.2
9,NNIE,≤ 0.2
10,ATRA,≤ 0.2
11,KPAC,≤ 0.2
12,ILYR,≤ 0.2
13,KQSY,≤ 0.2
14,ARAW,≤ 0.2
15,DHWV,≤ 0.2
16,SQTN,≤ 0.2
17,RAPG,0.569
18,IPSR,≤ 0.2
19,WLEC,≤ 0.2
20,RWKP,≤ 0.2
21,RAIM,0.209
22,ALRI,≤ 0.2
23,VRKM,≤ 0.2
24,QHPL,≤ 0.2

row,Variant,one-hybrid fitness for binding parS DNA
1,GWDT,≤ 0.2
2,TQPF,≤ 0.2
3,LPGA,≤ 0.2
4,GIDG,≤ 0.2
5,NARE,≤ 0.2
6,IISR,≤ 0.2
7,ESKM,≤ 0.2
8,HISF,≤ 0.2
9,LKAR,≤ 0.2
10,MHER,≤ 0.2
11,LNMT,≤ 0.2
12,ECIE,≤ 0.2
13,KVPY,≤ 0.2
14,LISG,≤ 0.2
15,LQQM,≤ 0.2
16,FPGY,≤ 0.2
17,PRTC,≤ 0.2
18,VKTW,≤ 0.2
19,QIRK,≤ 0.2
20,PTNQ,≤ 0.2
21,KKTC,≤ 0.2
22,RQQC,0.951
23,DSPG,≤ 0.2
24,RGKS,0.927

row,Variant,one-hybrid fitness for binding parS DNA
1,LWRS,≤ 0.2
2,LAWM,≤ 0.2
3,KLCD,≤ 0.2
4,QLWC,≤ 0.2
5,PRRG,≤ 0.2
6,QLGL,≤ 0.2
7,MCCG,≤ 0.2
8,RRYD,≤ 0.2
9,SQTL,≤ 0.2
10,TFHR,≤ 0.2
11,CVLC,≤ 0.2
12,GCTR,≤ 0.2
13,PQAW,≤ 0.2
14,DVDW,≤ 0.2
15,RDLQ,≤ 0.2
16,HAYA,≤ 0.2
17,CSKT,≤ 0.2
18,NQNS,≤ 0.2
19,RHIW,≤ 0.2
20,LDST,≤ 0.2
21,RSWI,≤ 0.2
22,LPWM,≤ 0.2
23,GRPK,≤ 0.2
24,PQAR,≤ 0.2

row,Variant,one-hybrid fitness for binding parS DNA
1,CNRG,≤ 0.2
2,ARAI,≤ 0.2
3,PSVN,≤ 0.2
4,FSPF,≤ 0.2
5,RTTD,≤ 0.2
6,ECCC,≤ 0.2
7,WKKC,≤ 0.2
8,MVPN,≤ 0.2
9,AMSR,≤ 0.2
10,SDLA,≤ 0.2
11,APQC,≤ 0.2
12,RVKY,0.664
13,MFWR,≤ 0.2
14,YPYG,≤ 0.2
15,MSYL,≤ 0.2
16,ILQL,≤ 0.2
17,PRHR,≤ 0.2
18,RTEM,0.281
19,KGNQ,≤ 0.2
20,IIFS,≤ 0.2
21,QHES,≤ 0.2
22,RKDG,0.939
23,HACH,≤ 0.2
24,RNQI,≤ 0.2

row,Variant,one-hybrid fitness for binding parS DNA
1,PCLT,≤ 0.2
2,VNTS,≤ 0.2
3,WKDC,≤ 0.2
4,RIIV,≤ 0.2
5,IIVG,≤ 0.2
6,IPIE,≤ 0.2
7,AQDG,≤ 0.2
8,PYLL,≤ 0.2
9,PPID,≤ 0.2
10,GFQG,≤ 0.2
11,TQAR,≤ 0.2
12,HPVW,≤ 0.2
13,KDTM,≤ 0.2
14,RPKH,≤ 0.2
15,YRWT,≤ 0.2
16,KDLA,≤ 0.2
17,PRVY,≤ 0.2
18,QINP,≤ 0.2
19,FSIR,≤ 0.2
20,YRWG,≤ 0.2
21,TNIR,≤ 0.2
22,LKWS,≤ 0.2
23,SATD,≤ 0.2
24,MNNT,≤ 0.2

row,Variant,one-hybrid fitness for binding parS DNA
1,GAAL,≤ 0.2
2,RFLK,≤ 0.2
3,QAQY,≤ 0.2
4,RVRV,≤ 0.2
5,TRQE,≤ 0.2
6,PDMG,≤ 0.2
7,HKAY,≤ 0.2
8,RPIR,≤ 0.2
9,VFAY,≤ 0.2
10,QQEL,≤ 0.2
11,MSCR,≤ 0.2
12,TCKK,≤ 0.2
13,FQQR,≤ 0.2
14,VLGI,≤ 0.2
15,KVYS,≤ 0.2
16,QLLT,≤ 0.2
17,LHNA,≤ 0.2
18,LIME,≤ 0.2
19,ARCT,≤ 0.2
20,QFTT,≤ 0.2
21,WCAS,≤ 0.2
22,NWQG,≤ 0.2
23,RLCD,≤ 0.2
24,WKKS,≤ 0.2

row,Variant,one-hybrid fitness for binding parS DNA
1,DKKD,≤ 0.2
2,HNKT,≤ 0.2
3,HLVC,≤ 0.2
4,NAAN,≤ 0.2
5,ATKH,≤ 0.2
6,SSQV,≤ 0.2
7,QYEW,≤ 0.2
8,NMGM,≤ 0.2
9,QDFY,≤ 0.2
10,TPDN,≤ 0.2
11,VGLW,≤ 0.2
12,NMSY,≤ 0.2
13,TGWG,≤ 0.2
14,ISDE,≤ 0.2
15,LFLT,≤ 0.2
16,LDDC,≤ 0.2
17,MILL,≤ 0.2
18,LTRD,≤ 0.2
19,TRKR,≤ 0.2
20,LNTW,≤ 0.2
21,FKVG,≤ 0.2
22,AIPK,≤ 0.2
23,AMNG,≤ 0.2
24,SSDV,≤ 0.2

row,Variant,one-hybrid fitness for binding parS DNA
1,ISNN,≤ 0.2
2,SRTA,≤ 0.2
3,NMTK,≤ 0.2
4,VKSD,≤ 0.2
5,IAPL,≤ 0.2
6,MPMI,≤ 0.2
7,KILG,≤ 0.2
8,LIVG,≤ 0.2
9,DRTL,≤ 0.2
10,PDVI,≤ 0.2
11,VFKM,≤ 0.2
12,CLSP,≤ 0.2
13,YTVA,≤ 0.2
14,KIER,≤ 0.2
15,GCTW,≤ 0.2
16,LPDF,≤ 0.2
17,EDSE,≤ 0.2
18,TPRG,≤ 0.2
